Measured values from PMC12480466.
Substitutions are numbered along the chain they refer to. No constants are given. Whether binding was seen depends on the method and setting. In cells and extracts the contact can be indirect. Some results given as binding are weak or reduced against the parent protein; the word gives no strength. Sequences can lack the tags named with a protein. One block for each binder: values may come before it.

Protein sequences, listed by entry. Tags and fused reporters are not part of them.
UniProt Q9BV73: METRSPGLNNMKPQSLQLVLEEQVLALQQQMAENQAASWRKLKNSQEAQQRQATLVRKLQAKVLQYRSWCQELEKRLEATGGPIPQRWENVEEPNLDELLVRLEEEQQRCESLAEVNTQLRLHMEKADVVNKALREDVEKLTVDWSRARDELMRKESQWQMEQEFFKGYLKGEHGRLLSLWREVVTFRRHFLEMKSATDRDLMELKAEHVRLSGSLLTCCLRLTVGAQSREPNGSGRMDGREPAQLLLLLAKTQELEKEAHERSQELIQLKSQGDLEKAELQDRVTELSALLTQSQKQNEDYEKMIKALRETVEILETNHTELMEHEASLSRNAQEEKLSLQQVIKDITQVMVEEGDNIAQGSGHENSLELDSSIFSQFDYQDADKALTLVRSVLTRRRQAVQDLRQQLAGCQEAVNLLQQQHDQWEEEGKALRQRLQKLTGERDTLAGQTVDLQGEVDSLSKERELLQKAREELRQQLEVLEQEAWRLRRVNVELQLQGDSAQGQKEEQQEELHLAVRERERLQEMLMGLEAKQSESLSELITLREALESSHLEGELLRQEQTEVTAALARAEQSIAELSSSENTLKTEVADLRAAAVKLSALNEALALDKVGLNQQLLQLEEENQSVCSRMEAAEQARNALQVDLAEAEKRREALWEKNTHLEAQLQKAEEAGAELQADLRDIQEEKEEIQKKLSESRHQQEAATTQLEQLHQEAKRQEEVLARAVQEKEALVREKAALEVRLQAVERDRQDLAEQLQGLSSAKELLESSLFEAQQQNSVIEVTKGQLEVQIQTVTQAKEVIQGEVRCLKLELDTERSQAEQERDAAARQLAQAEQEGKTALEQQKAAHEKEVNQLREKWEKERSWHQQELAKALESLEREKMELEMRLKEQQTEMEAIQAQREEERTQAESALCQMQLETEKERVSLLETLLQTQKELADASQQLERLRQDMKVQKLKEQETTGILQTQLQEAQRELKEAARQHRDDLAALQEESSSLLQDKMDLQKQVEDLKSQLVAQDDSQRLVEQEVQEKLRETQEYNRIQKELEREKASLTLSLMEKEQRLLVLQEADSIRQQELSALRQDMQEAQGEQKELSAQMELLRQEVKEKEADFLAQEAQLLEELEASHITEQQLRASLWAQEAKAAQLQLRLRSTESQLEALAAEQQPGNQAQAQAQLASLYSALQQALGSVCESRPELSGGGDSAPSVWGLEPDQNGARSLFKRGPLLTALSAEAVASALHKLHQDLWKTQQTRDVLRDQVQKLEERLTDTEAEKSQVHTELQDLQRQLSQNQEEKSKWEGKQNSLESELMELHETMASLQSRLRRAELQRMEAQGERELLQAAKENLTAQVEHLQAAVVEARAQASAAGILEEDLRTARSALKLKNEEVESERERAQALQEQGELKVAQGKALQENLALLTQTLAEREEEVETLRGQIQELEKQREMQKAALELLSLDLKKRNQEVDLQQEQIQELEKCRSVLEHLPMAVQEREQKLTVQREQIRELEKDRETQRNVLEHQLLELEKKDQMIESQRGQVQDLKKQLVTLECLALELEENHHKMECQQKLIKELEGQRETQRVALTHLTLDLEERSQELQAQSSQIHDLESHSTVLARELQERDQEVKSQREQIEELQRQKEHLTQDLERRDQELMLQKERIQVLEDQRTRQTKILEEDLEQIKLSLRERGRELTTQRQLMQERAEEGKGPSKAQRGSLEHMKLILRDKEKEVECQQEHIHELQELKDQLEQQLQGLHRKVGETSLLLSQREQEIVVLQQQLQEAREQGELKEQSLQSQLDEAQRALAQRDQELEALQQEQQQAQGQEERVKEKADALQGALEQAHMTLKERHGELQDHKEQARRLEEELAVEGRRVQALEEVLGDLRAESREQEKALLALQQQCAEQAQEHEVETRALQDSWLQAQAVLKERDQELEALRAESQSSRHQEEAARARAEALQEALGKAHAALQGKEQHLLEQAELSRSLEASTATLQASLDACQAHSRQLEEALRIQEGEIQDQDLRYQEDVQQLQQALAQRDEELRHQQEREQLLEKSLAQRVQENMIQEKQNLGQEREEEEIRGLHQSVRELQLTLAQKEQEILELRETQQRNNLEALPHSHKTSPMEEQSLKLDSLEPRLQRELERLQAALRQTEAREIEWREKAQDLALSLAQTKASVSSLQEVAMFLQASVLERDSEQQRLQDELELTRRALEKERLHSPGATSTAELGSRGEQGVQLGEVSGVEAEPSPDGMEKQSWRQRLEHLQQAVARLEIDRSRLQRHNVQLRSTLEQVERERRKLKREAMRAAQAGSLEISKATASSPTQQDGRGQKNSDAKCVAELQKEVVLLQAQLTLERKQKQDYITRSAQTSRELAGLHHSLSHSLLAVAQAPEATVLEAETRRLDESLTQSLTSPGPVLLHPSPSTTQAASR
UniProt P53350: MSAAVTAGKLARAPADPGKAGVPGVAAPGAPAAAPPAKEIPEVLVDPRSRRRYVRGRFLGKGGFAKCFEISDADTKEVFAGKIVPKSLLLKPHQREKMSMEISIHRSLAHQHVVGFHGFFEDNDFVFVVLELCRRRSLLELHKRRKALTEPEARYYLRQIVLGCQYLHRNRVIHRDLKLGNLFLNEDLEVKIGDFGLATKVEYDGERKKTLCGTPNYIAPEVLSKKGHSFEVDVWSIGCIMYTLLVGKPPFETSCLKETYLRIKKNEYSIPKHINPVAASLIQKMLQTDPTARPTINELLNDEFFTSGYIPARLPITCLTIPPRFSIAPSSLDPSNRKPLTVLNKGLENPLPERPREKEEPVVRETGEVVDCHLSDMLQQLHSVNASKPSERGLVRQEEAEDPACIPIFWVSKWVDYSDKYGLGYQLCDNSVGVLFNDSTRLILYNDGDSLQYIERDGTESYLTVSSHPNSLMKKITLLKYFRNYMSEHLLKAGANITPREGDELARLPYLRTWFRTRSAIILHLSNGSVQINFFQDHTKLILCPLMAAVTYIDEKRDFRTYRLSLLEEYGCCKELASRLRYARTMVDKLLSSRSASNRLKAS

How the values were obtained:
Assay in all cases: co-IP; lysates of HEK293T cells overexpressing both tagged proteins; lysis buffer 150 mM NaCl, 50 mM HEPES, 1 mM MgCl2, 1 mM EGTA, 0.5% Triton X-100, pH 7.4; antibodies and protein G-Sepharose, 4 °C, 4 h or overnight; immunoblotting
C-Nap1-GFP (human) = C-Nap1-GFP (human) (UniProt Q9BV73)
3×FLAG-NEK2 (human) = biological target: T1, 3×FLAG-NEK2 (human) (UniProt P51955)
T1 sequence: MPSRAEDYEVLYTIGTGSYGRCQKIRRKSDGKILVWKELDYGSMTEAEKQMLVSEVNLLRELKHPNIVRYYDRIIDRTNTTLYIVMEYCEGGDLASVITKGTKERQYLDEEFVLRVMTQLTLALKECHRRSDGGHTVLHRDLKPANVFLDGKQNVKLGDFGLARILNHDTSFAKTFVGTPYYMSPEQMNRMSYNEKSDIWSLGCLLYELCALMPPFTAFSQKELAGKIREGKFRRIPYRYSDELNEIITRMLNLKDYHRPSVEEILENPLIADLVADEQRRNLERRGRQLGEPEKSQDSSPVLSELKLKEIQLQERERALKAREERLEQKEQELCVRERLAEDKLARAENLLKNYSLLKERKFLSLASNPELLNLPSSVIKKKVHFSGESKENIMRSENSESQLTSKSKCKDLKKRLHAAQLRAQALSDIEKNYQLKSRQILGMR

GFP-PLK1 (FL) (human) = GFP-PLK1 (FL) (human) (UniProt P53350)

binding (C-Nap1-GFP (human)): binds
B1: 3×FLAG-TUFT1-2A (protein, UniProt Q9NNX1-1 1-390)
chain: MNGTRNWCTLVDVHPEDQAAGSVDILRLALQGELTGDELEHIAQKAGRKTYAMVSSHSAGHSLASELVEAHDGHEEIIKVYLKGRSGDKMIHEKNINQLKSEVQYIQEARNCLQKLREDISSKLDRNLGDSLHRQEIQVVLEKPNGFSQSPTALYSSPPEVDTCINEDVESLRKTVQDLLAKLQEAKRQHQSDCVAFEVTLSRYQREAEQSNVALQREEDRVEQKEAEVGELQRRLLGMETEHQALLAKVREGEVALEELRSNNADCQAEREKAATLEKEVAGLREKIHHLDDMLKSQQRKVRQMIEQLQNSKAVIQSKDATIQELKEKIAYLEAENLEMHDRMEHLIEKQISHGNFSTQARAKTENPGSIRISKPPSPKPMPVIRVVET

binding (3×FLAG-NEK2 (human)): binds
B2: GFP-TUFT1 (protein, UniProt Q9NNX1-1 1-390)
chain: B1 chain with A29T, A70S

binding (C-Nap1-GFP (human)): binds
B3: 3×FLAG-TUFT1 N-terminus (1–150 aa) (domain or fragment, UniProt Q9NNX1-1 1-150)
chain: MNGTRNWCTLVDVHPEDQAAGSVDILRLTLQGELTGDELEHIAQKAGRKTYAMVSSHSAGHSLASELVESHDGHEEIIKVYLKGRSGDKMIHEKNINQLKSEVQYIQEARNCLQKLREDISSKLDRNLGDSLHRQEIQVVLEKPNGFSQS

binding (GFP-PLK1 (FL) (human)): binds
B4: 3×FLAG-TUFT1 C-terminus (151–390 aa) (domain or fragment, UniProt Q9NNX1-1 151-390)
chain: PTALYSSPPEVDTCINEDVESLRKTVQDLLAKLQEAKRQHQSDCVAFEVTLSRYQREAEQSNVALQREEDRVEQKEAEVGELQRRLLGMETEHQALLAKVREGEVALEELRSNNADCQAEREKAATLEKEVAGLREKIHHLDDMLKSQQRKVRQMIEQLQNSKAVIQSKDATIQELKEKIAYLEAENLEMHDRMEHLIEKQISHGNFSTQARAKTENPGSIRISKPPSPKPMPVIRVVET
